Data reported in the supplement of paper PMC7125110.
± gives the standard error. Variants at the background level are over-represented here.

B1: glmS ribozyme (parent)
chain: AUAAAAGCGCCAGAACUACAGAAAUGUAGUUGACGAGGAGGAGGUUUAUCGAAUUUUCGGCGGAUGCCUCCAAA

How the values were obtained:
Details in all cases: with glucosamine-6-phosphate
glucosamine-6-phosphate [1] = variants of: B1; test: self-cleavage kobs at 640 uM GlcN6P; higher = faster cleavage; RNA array
Method in brief: (§1)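 Weighted Michaelis–Menten fits across concentrations supplied kcat and KM, based on kobs from one- or two-exponential decay fits to normalised per-tile medians. The data came from barcoded ribozyme variants transcribed in situ by E. coli RNA polymerase on sequenced MiSeq chips and tracked at 37 °C by a hybridised Cy3 probe. Glucosamine-6-phosphate (40 μM to 10 mM) in HEPES/KCl/Mg(OAc)2 buffer was flowed in.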

glucosamine-6-phosphate [2] = variants of: B1; test: self-cleavage kobs at 2500 uM GlcN6P; higher = faster cleavage; RNA array
Method in brief: as §1

glucosamine-6-phosphate [3] = variants of: B1; test: self-cleavage kobs at 160 uM GlcN6P; higher = faster cleavage; RNA array
Method in brief: as §1

glucosamine-6-phosphate [4] = variants of: B1; test: self-cleavage kobs at 10000 uM GlcN6P; higher = faster cleavage; RNA array
Method in brief: as §1

Row | Variant | self-cleavage kobs at 640 uM GlcN6P (glucosamine-6-phosphate [1]) [s⁻¹] | self-cleavage kobs at 2500 uM GlcN6P (glucosamine-6-phosphate [2]) [s⁻¹] | self-cleavage kobs at 160 uM GlcN6P (glucosamine-6-phosphate [3]) [s⁻¹] | self-cleavage kobs at 10000 uM GlcN6P (glucosamine-6-phosphate [4]) [s⁻¹]
1 | AUAAAAGCGCCAGAACUACAGAAAUGUAGUUGACGAGGAGGAGGUUUAUCGAAAUUUCGGCGGGUGCGUCCAAA | 5.8e-05 ± 2.1e-05 | 0.000109 ± 3.5e-05 |  | 
2 | AUAAAAGCGCCAGAACUACAGAAAUGUAGUUGACGAGGAGGAGGUUUAUGGUAUAUUCGGCGUUUGCCUCCAAA | < 1e-05 |  |  | 
3 | AUAAAAGCGCCAGAACUACAGAAAUGUAGUUGACGAGGAGGAGGUUUAUCUAGUAUUCGGCGGAUGCCUCCAAA | < 1e-05 | < 1e-05 |  | 
4 | AUAAAAGCGCCAGAACUACAGAAAUGUAGUUGACGAGGAGGAGGUUUAUCAAAUUUUUGGCGGCUGCCUCCAAA | < 1e-05 |  | < 1e-05 | 
5 | AUAAAAGCGCCAGAACUACAGAAAUGUAGUUGACGAGGAGGAGGUUUAUCGAAUUUCCGGCGGUUGCCUCCAAA | < 1e-05 |  | < 1e-05 | < 1e-05
6 | AUAAAAGCGCCAGAACUACAGAAAUGUAGUUGACGAGGAGGAGGUUUAUCGAUUCUUCGGCGGGUGCCUCGAAA | < 1e-05 |  |  | 
7 | AUAAAAGCGCCAGAACUACAGAAAUGUAGUUGACGAGGAGGAGGUUUAUAGAAUUUUCGGCGGAUCCCUCCAAA | < 1e-05 |  |  | 
8 | AUAAAAGCGCCAGAACUACAGAAAUGUAGUUGACGAGGAGGAGGUUUAUCGUAUUUUCGGCGGAUGCUUCCAAA | 6.72e-05 ± 8.8e-06 | 0.000158 ± 1.4e-05 | 1.96e-05 ± 8.9e-06 | 0.000236 ± 2.4e-05
9 | AUAAAAGCGCCAGAACUACAGAAAUGUAGUUGACGAGGAGGAGGUUUAUAGAAUUUUCGGCGGAUGUCUGCAAA | 6.04e-05 ± 2.3e-05 |  |  | 
10 | AUAAAAGCGCCAGAACUACAGAAAUGUAGUUGACGAGGAGGAGGUUUAUCGUAUUUUCGGCGGAUGCCUCUAAA | 0.0001 ± 1.4e-05 | 0.000275 ± 2.9e-05 |  | 0.000362 ± 3.4e-05
11 | AUAAAAGCGCCAGAACUACAGAAAUGUAGUUGACGAGGAGGAGGUUUAUUGAAUUUUCGGCGGGUGCUUCCAAA | < 1e-05 |  |  | 
12 | AUAAAAGCGCCAGAACUACAGAAAUGUAGUUGACGAGGAGGAGGUUUUUCGAAGUUUCGUCGGAUGCCUCCAAA | < 1e-05 | < 1e-05 |  | 
13 | AUAAAAGCGCCAGAACUACAGAAAUGUAGUUGACGAGGAGGAGGUUUAUAGAACUUUCGGCGGAUGCCUCCAAA | < 1e-05 |  | < 1e-05 | 
14 | AUAAAAGCGCCAGAACUACAGAAAUGUAGUUGACGAGGAGGAGGUUUAUCGAAUUUCCGGGGGAUGCCUCCAAA | < 1e-05 |  | < 1e-05 | 
15 | AUAAAAGCGCCAGAACUACAGAAAUGUAGUUGACGAGGAGGAGGUUUAUCGCAUUUUGGGCGCAUGCCUCCAAA | < 1e-05 | < 1e-05 |  | 
16 | AUAAAAGCGCCAGAACUACAGAAAUGUAGUUGACGAGGAGGAGGUUUAUGCAAUUUUCGACGGAUUCCUCCAAA | < 1e-05 | < 1e-05 | < 1e-05 | 
17 | AUAAAAGCGCCAGAACUACAGAAAUGUAGUUGACGAGGAGGAGGUUUAUCGAAUUGUCGGCGGCUGCCUCCAAA | 2.44e-05 ± 1.1e-05 | 3.92e-05 ± 1.5e-05 | < 1e-05 | 6.35e-05 ± 8.6e-06

Row | Variant | self-cleavage kobs at 640 uM GlcN6P (glucosamine-6-phosphate [1]) [s⁻¹] | self-cleavage kobs at 2500 uM GlcN6P (glucosamine-6-phosphate [2]) [s⁻¹] | self-cleavage kobs at 160 uM GlcN6P (glucosamine-6-phosphate [3]) [s⁻¹] | self-cleavage kobs at 10000 uM GlcN6P (glucosamine-6-phosphate [4]) [s⁻¹]
18 | AUAAAAGCGCCAGAACUACAGAAAUGUAGUUGACGAGGAGGAGGUUUAUCAAAUCUUCGGCGGAUGCCUCCAAA | < 1e-05 |  | < 1e-05 | < 1e-05
19 | AUAAAAGCGCCAGAACUACAGAAAUGUAGUUGACGAGGAGGAGGUUUUUCUAAUUUUCGGCGCAUGUCUACAAA | < 1e-05 |  |  | 
20 | AUAAAAGCGCCAGAACUACAGAAAUGUAGUUGACGAGGAGGAGGUUUAUCGCAUUUUCGGCAGAUGCCUCCAAA | < 1e-05 | < 1e-05 |  | 
21 | AUAAAAGCGCCAGAACUACAGAAAUGUAGUUGACGAGGAGGAGGUUUAUCCAACUUUCGGCGGUUGCCUCCAAA | < 1e-05 | < 1e-05 |  | 
22 | AUAAAAGCGCCAGAACUACAGAAAUGUAGUUGACGAGGAGGAGGUUUAUCGAAAUUUAGGCGGAUGCCUCCAAA | 9.65e-05 ± 1.3e-05 | 0.000217 ± 2.9e-05 | 2.83e-05 ± 1.3e-05 | 0.000547 ± 5.7e-05
23 | AUAAAAGCGCCAGAACUACAGAAAUGUAGUUGACGAGGAGGAGGUUUAUCGUAUUCUCGGCCGAUGCCUCCAAA | < 1e-05 | < 1e-05 |  | 
24 | AUAAAAGCGCCAGAACUACAGAAAUGUAGUUGACGAGGAGGAGGUUUAUUUAAUUUUCGGCAGAUGCCUCCAAA | < 1e-05 |  |  | 
25 | AUAAAAGCGCCAGAACUACAGAAAUGUAGUUGACGAGGAGGAGGUUUAUCGAAUUCUCGGCGGAUCCCUCCAAA | 6.26e-05 ± 2.2e-05 | 8.66e-05 ± 2.4e-05 |  | 
26 | AUAAAAGCGCCAGAACUACAGAAAUGUAGUUGACGAGGAGGAGGUUUAUCGCAUUUUCGGCGCAUGCCUCCAAA | < 1e-05 | < 1e-05 |  | < 1e-05
27 | AUAAAAGCGCCAGAACUACAGAAAUGUAGUUGACGAGGAGGAGGUUUAUGGAAUUUUCGGCGCAUGCCUCCAAA | < 1e-05 |  | 3.67e-05 ± 1.6e-05 | 
28 | AUAAAAGCGCCAGAACUACAGAAAUGUAGUUGACGAGGAGGAGGUUUACCGAAUUUUCGGCGGAUGACUCCAAA | < 1e-05 |  | < 1e-05 | < 1e-05
29 | AUAAAAGCGCCAGAACUACAGAAAUGUAGUUGACGAGGAGGAGGUUUAUCGAAUUAUAGGCGGAUGCCUCCAAA | 0.000101 ± 1.3e-05 | 0.000187 ± 2.3e-05 | 3.2e-05 ± 1.1e-05 | 
30 | AUAAAAGCGCCAGAACUACAGAAAUGUAGUUGACGAGGAGGAGGUUUACCGAAUUUUCGGCUGAUGCCUCCAAA | < 1e-05 | < 1e-05 | < 1e-05 | < 1e-05
31 | AUAAAAGCGCCAGAACUACAGAAAUGUAGUUGACGAGGAGGAGGUUUAUCGUCUUUUCGGCGGUUGCCUCCAAA | < 1e-05 |  |  | 
32 | AUAAAAGCGCCAGAACUACAGAAAUGUAGUUGACGAGGAGGAGGUUUAUCGAAUAUUCCGCGGAUGCCUCCAAA | < 1e-05 |  |  | < 1e-05
33 | AUAAAAGCGCCAGAACUACAGAAAUGUAGUUGACGAGGAGGAGGUUUAUCGAAAUUUCGGCGGAUACCUCCAAA | 0.00513 ± 0.00085 | 0.00986 ± 0.0017 | 0.00093 ± 0.00023 | 
